# In ChEMBL document CHEMBL4888484, “Replenishing the malaria drug discovery pipeline: Screening and hit evaluation of the MMV Hit Generation Library 1 (HGL1) against asexual blood stage Plasmodium falciparum ,using a nano luciferase reporter read-out” (2022):
# About 540 (0.36%) of roughly 150,000 compounds showed an effect of 50% or more. This is one part of the list.
# Test system: Plasmodium falciparum
# Assay: Primary screen in NF54 nanoGlo assay, in single point, at 2uM, 72h; a lower Z score goes with more inhibition
# Type: functional, Erythrocyte
# Conditions: timepoint 72 hour
Compound,% Inhibition [%],Z score
CN(CCCCN1CCOCC1)C(=O)c1cn(CC2CCCCC2)nn1,-13,2.58
C[C@@H](COc1ccc(F)cc1F)NC(=O)NC(C(N)=O)C(N)=O,11,-1.71
COc1ccc(CNC(=O)c2cc3c([nH]c2=O)CCCC3=O)cc1,-3,0.37
CCC(C)N1C(=O)CC(C(=O)O)C1c1cnn(-c2ccccc2)c1 (stereo unspecified),-6,1.24
Cc1ccc(NC(=O)N2CCC(N3CCC(CC4CC4)(C(N)=O)CC3)CC2)c(C)c1,3,-0.4
Cc1cc(CN(C)C(=O)c2sc(-c3ccco3)nc2-c2ccccc2)no1,-3,0.35
CCc1ccc2c(c1)N=C(c1ccccc1)N=C(c1cccs1)N2,-10,1.15
COc1cc(NC(=O)c2[nH]c3ccccc3c2Br)ccc1N1CCOC1=O,17,-2
C[C@H]1CS(=O)(=O)C[C@H]1NC(=O)Nc1ccc2ccoc2c1,35,-5.09
Cc1cccc(NC(=O)c2cn3c4c(cccc4c2=O)CCC3)c1,-9,1.41
Cc1cc(N2CCC(C(=O)Nc3ncccn3)CC2)c2ccccc2n1,-4,0.53
COc1ccc(S(=O)(=O)N2[C@@H]3CC[C@H]2CC(NC(=O)c2ccncc2)C3)cc1 (stereo partly specified),-5,0.94
CCc1nnc(-c2cccn2CC(=O)NCc2cccc(OC)c2)o1,-8,1.27
O=C(NCc1ccc(F)cc1)C(=O)N[C@H]1CCCc2occc21,8,-0.94
Cc1cnn(-c2ccc(C(=O)Nc3cccnc3)o2)c1,-9,1.33
CC(C)c1ccc(NC(=O)N2CCS(=O)(=O)CC[C@@H]2C)cc1F,-6,0.66
CCn1nnc(C)c1C(=O)N1CCC(F)(c2cccc(OC)c2)CC1,-12,1.93
COc1ccc(-c2nn(C)c3ncnc(N)c23)c(F)c1,-8,1.1
Oc1ccc([C@@H](Cc2nc(-c3ccncc3)no2)C2CC2)cc1,14,-1.73
CC(CN1CCN(c2ccccc2)CC1)NC(=O)C1CC2CCC1O2 (stereo unspecified),5,-0.99
CCCS(=O)(=O)Nc1ccnn1Cc1sccc1C,2,-0.29
CC(=O)c1ccc(NC(=O)Cn2c(=O)c(N3CCCCC3)nc3ccccc32)cc1,-14,1.34
CCCC(=O)N1CCC2(CC1)NCCc1c2[nH]c2ccccc12,-7,0.89
